The other results are listed elsewhere or left out.

The test system of this assay is S. aureus RN4220. Nature of the assay: growth inhibition call (relative growth <= 0.2). The conditions noted are these: 50 µM.
On to `C[C@@H]1CN([C@H](C)CO)C(=O)Cc2cc(NC(=O)Nc3ccccc3)ccc2O[C@@H]1CN(C)Cc1ccc(C(F)(F)F)cc1`, for which the growth inhibition call is “inactive”.

As for `Cc1noc(C)c1S(=O)(=O)Nc1ccc2c(c1)C(=O)N([C@H](C)CO)C[C@H](C)[C@@H](CN(C)C(=O)Nc1ccc(F)cc1)OCCCC[C@H](C)O2`, the growth inhibition call was “inactive”.

Regarding `C[C@H]1CN([C@@H](C)CO)C(=O)c2cccc(NC(=O)c3nc4ccccc4s3)c2O[C@H]1CN(C)Cc1ccc(-c2ccccc2)cc1`, the growth inhibition call is “inactive”.

On to `COc1ccc(CN(C)C[C@H]2Oc3ccc(NC(=O)Nc4ccc(C(F)(F)F)cc4)cc3CC(=O)N([C@H](C)CO)C[C@H]2C)cc1`, for which the growth inhibition call is “inactive”.

In the case of `CCN1CCN(C(=O)NC(C(=O)NC2C(=O)N3C2SC(C)(C)C3C(=O)[O-])c2ccccc2)C(=O)C1=O.[Na+]` (stereo not given), the growth inhibition call was “active”.

Turning to `C[C@@H]1CCCCO[C@H](CN(C)S(=O)(=O)c2ccc(Cl)cc2)[C@@H](C)CN([C@H](C)CO)C(=O)c2cc(NS(=O)(=O)c3ccc(Cl)cc3)ccc2O1`, the growth inhibition call was “inactive”.

`C[C@H]1CCCCO[C@@H](CN(C)C(=O)C2CCCCC2)[C@@H](C)CN([C@@H](C)CO)C(=O)c2cc(NC(=O)c3ccccc3)ccc2O1`: the growth inhibition call was “inactive”.

Take `CC(C)(C)C(=O)C[C@@H](Nc1ccccc1)c1ccc(Cl)cc1`: the growth inhibition call is “inactive”.

Take `COC(=O)CCCCCCC(=O)N/N=C/[C@H](O)[C@@H](O)[C@H](O[C@@H]1O[C@H](CO)[C@H](O)[C@H](O)[C@H]1O)[C@H](O)CO`: the growth inhibition call is “inactive”.

As for `C[C@H](CO)N1C[C@H](C)[C@H](CN(C)Cc2ccc(C(F)(F)F)cc2)OCCCC[C@H](C)Oc2ccc(NC(=O)Nc3ccccc3)cc2C1=O`, the growth inhibition call is “inactive”.

For the origin of these results see the antibiotic and cytotoxicity screens of Wong et al. (2023).
